In the supplement of paper PMC6657886:
MIC of clinical N. gonorrhoeae isolates (2015-2017) by agar dilution on GC agar with 1% IsoVitaleX (ranges not stated); higher = less susceptible. No active / inactive call per row; the paper counts benzylpenicillin above 1 and ceftriaxone above 0.125 mg/L as resistant (EUCAST). The method is stated for benzylpenicillin and ceftriaxone and assumed for the other drugs. '<=' is inferred from pile-ups at the end values. Isolates are numbered anew.

Tests used:
Assay in all cases: Agar dilution on enriched GC agar; resistance determinants by microarray.
[1] = compound: CO/N=C(\C(=O)N[C@@H]1C(=O)N2C(C(=O)O)=C(CSc3nc(=O)c(O)nn3C)CS[C@H]12)c1csc(N)n1 [ceftriaxone]
[2] = compound: CC1(C)S[C@@H]2[C@H](NC(=O)Cc3ccccc3)C(=O)N2[C@H]1C(=O)O [benzylpenicillin]
[3] = compound: CN[C@@H]1[C@H](O)[C@H](NC)[C@H]2O[C@@]3(O)C(=O)C[C@@H](C)O[C@H]3O[C@@H]2[C@H]1O [spectinomycin]
[4] = compound: CC[C@H]1OC(=O)[C@H](C)[C@@H](O[C@H]2C[C@@](C)(OC)[C@@H](O)[C@H](C)O2)[C@H](C)[C@@H](O[C@@H]2O[C@H](C)C[C@H](N(C)C)[C@H]2O)[C@](C)(O)C[C@@H](C)CN(C)[C@H](C)[C@@H](O)[C@]1(C)O [azithromycin]
[5] = compound: CN(C)[C@@H]1C(O)=C(C(N)=O)C(=O)[C@@]2(O)C(O)=C3C(=O)c4c(O)cccc4[C@@](C)(O)[C@H]3C[C@@H]12 [tetracycline]

Test System	MIC [1] [µg/mL]	MIC [2] [µg/mL]	MIC [3] [µg/mL]	MIC [4] [µg/mL]	MIC [5] [µg/mL]
Neisseria gonorrhoeae isolate 251 (blaTEM plasmid: no, gyrA: Phe91, Gly95, mtrR promoter: wild type, parC: Arg87, Glu91, penA: ins345Asp, ponA: Pro421, porB: Asp120, Ala121, rpsJ: Met57, tetM plasmid: no)	0.004	0.25	32	0.015	0.5
Neisseria gonorrhoeae isolate 228 (blaTEM plasmid: no, gyrA: wild type, mtrR promoter: wild type, parC: wild type, penA: wild type, ponA: wild type, porB: wild type, rpsJ: wild type, tetM plasmid: no)	≤ 0.002	≤ 0.015	16	0.06	0.12
Neisseria gonorrhoeae isolate 359 (blaTEM plasmid: no, gyrA: wild type, mtrR promoter: wild type, parC: wild type, penA: ins345Asp, ponA: Pro421, porB: wild type, rpsJ: wild type, tetM plasmid: no)	0.015	0.5	16	0.25	1
Neisseria gonorrhoeae isolate 285 (blaTEM plasmid: no, gyrA: wild type, mtrR promoter: wild type, parC: wild type, penA: wild type, ponA: wild type, porB: wild type, rpsJ: wild type, tetM plasmid: no)	≤ 0.002	≤ 0.015	32	0.12	0.12
Neisseria gonorrhoeae isolate 161 (blaTEM plasmid: no, gyrA: wild type, mtrR promoter: wild type, parC: wild type, penA: ins345Asp, ponA: wild type, porB: wild type, rpsJ: Met57, tetM plasmid: no)	≤ 0.002	0.03	16	0.25	0.5
Neisseria gonorrhoeae isolate 22 (blaTEM plasmid: no, gyrA: wild type, mtrR promoter: wild type, parC: wild type, penA: wild type, ponA: wild type, porB: wild type, rpsJ: wild type, tetM plasmid: no)	≤ 0.002	0.03	16	0.06	0.12
Neisseria gonorrhoeae isolate 386 (blaTEM plasmid: no, gyrA: wild type, mtrR promoter: wild type, parC: wild type, penA: ins345Asp, ponA: wild type, porB: wild type, rpsJ: wild type, tetM plasmid: no)	≤ 0.002	0.06	16	0.002	0.12
Neisseria gonorrhoeae isolate 370 (blaTEM plasmid: no, gyrA: wild type, mtrR promoter: wild type, parC: wild type, penA: ins345Asp, ponA: wild type, porB: wild type, rpsJ: Met57, tetM plasmid: no)	≤ 0.002	0.12	16	0.06	0.5
Neisseria gonorrhoeae isolate 352 (blaTEM plasmid: no, gyrA: Phe91, Asn95, mtrR promoter: -35delA, parC: wild type, penA: wild type, ponA: Pro421, porB: Asn120, Asp121, rpsJ: Met57, tetM plasmid: no)	0.015	1	16	0.25	1
Neisseria gonorrhoeae isolate 40 (blaTEM plasmid: no, gyrA: wild type, mtrR promoter: wild type, parC: wild type, penA: wild type, ponA: wild type, porB: wild type, rpsJ: wild type, tetM plasmid: no)	≤ 0.002	≤ 0.015	4	0.03	0.06
Neisseria gonorrhoeae isolate 234 (blaTEM plasmid: no, gyrA: wild type, mtrR promoter: wild type, parC: wild type, penA: wild type, ponA: wild type, porB: wild type, rpsJ: wild type, tetM plasmid: no)	≤ 0.002	≤ 0.015	16	0.06	0.12
Neisseria gonorrhoeae isolate 322 (blaTEM plasmid: no, gyrA: wild type, mtrR promoter: wild type, parC: wild type, penA: wild type, ponA: wild type, porB: wild type, rpsJ: wild type, tetM plasmid: no)	≤ 0.002	≤ 0.015	16	0.12	0.12
Neisseria gonorrhoeae isolate 357 (blaTEM plasmid: no, gyrA: wild type, mtrR promoter: wild type, parC: wild type, penA: wild type, ponA: wild type, porB: wild type, rpsJ: wild type, tetM plasmid: no)	≤ 0.002	≤ 0.015	32	0.12	0.25
Neisseria gonorrhoeae isolate 493 (blaTEM plasmid: no, gyrA: wild type, mtrR promoter: wild type, parC: wild type, penA: ins345Asp, ponA: wild type, porB: wild type, rpsJ: wild type, tetM plasmid: no)	0.008	0.12	4	0.12	0.12
Neisseria gonorrhoeae isolate 223 (blaTEM plasmid: no, gyrA: wild type, mtrR promoter: wild type, parC: wild type, penA: ins345Asp, ponA: wild type, porB: wild type, rpsJ: wild type, tetM plasmid: no)	≤ 0.002	≤ 0.015	16	0.06	0.25
Neisseria gonorrhoeae isolate 330 (blaTEM plasmid: no, gyrA: wild type, mtrR promoter: wild type, parC: wild type, penA: wild type, ponA: wild type, porB: wild type, rpsJ: wild type, tetM plasmid: no)	≤ 0.002	≤ 0.015	32	0.002	1
Neisseria gonorrhoeae isolate 25 (blaTEM plasmid: no, gyrA: wild type, mtrR promoter: wild type, parC: wild type, penA: wild type, ponA: wild type, porB: wild type, rpsJ: wild type, tetM plasmid: no)	≤ 0.002	≤ 0.015	32	0.03	0.25
Neisseria gonorrhoeae isolate 137 (blaTEM plasmid: no, gyrA: Phe91, Asn95, mtrR promoter: -35delA, parC: wild type, penA: ins345Asp, ponA: Pro421, porB: Asn120, Asp121, rpsJ: Met57, tetM plasmid: no)	0.008	1	16	0.25	1
Neisseria gonorrhoeae isolate 116 (blaTEM plasmid: no, gyrA: wild type, mtrR promoter: wild type, parC: wild type, penA: ins345Asp, ponA: wild type, porB: wild type, rpsJ: wild type, tetM plasmid: no)	≤ 0.002	0.03	16	0.06	0.5
Neisseria gonorrhoeae isolate 450 (blaTEM plasmid: no, gyrA: wild type, mtrR promoter: wild type, parC: wild type, penA: wild type, ponA: wild type, porB: wild type, rpsJ: wild type, tetM plasmid: no)	≤ 0.002	≤ 0.015	16	0.25	0.5
Neisseria gonorrhoeae isolate 171 (blaTEM plasmid: no, gyrA: Phe91, Gly95, mtrR promoter: wild type, parC: Arg87, Glu91, penA: ins345Asp, ponA: wild type, porB: Asn120, Asp121, rpsJ: Met57, tetM plasmid: no)	0.004	0.25	16	0.25	2
Neisseria gonorrhoeae isolate 491 (blaTEM plasmid: no, gyrA: wild type, mtrR promoter: wild type, parC: wild type, penA: wild type, ponA: wild type, porB: wild type, rpsJ: wild type, tetM plasmid: no)	≤ 0.002	≤ 0.015	16	0.12	0.25
Neisseria gonorrhoeae isolate 115 (blaTEM plasmid: no, gyrA: Phe91, Asn95, mtrR promoter: -35delA, parC: wild type, penA: ins345Asp, ponA: Pro421, porB: Asn120, Asp121, rpsJ: Met57, tetM plasmid: no)	0.008	1	16	0.25	1
Neisseria gonorrhoeae isolate 142 (blaTEM plasmid: no, gyrA: Phe91, Asp95, mtrR promoter: -35delA, parC: wild type, penA: ins345Asp, ponA: wild type, porB: Lys120, Asn121, rpsJ: Met57, tetM plasmid: no)	≤ 0.002	0.12	32	1	2
Neisseria gonorrhoeae isolate 222 (blaTEM plasmid: no, gyrA: wild type, mtrR promoter: wild type, parC: wild type, penA: ins345Asp, ponA: wild type, porB: wild type, rpsJ: Met57, tetM plasmid: no)	0.008	0.5	16	0.12	0.5
